{
  "source": "the supplement of paper PMC3334620",
  "note": "Whole data set: some 33,000 sequences, median “E-score (-0.5 to 0.5)” near -0.017, cut for the highest 2% near 0.3. The list shows a part of the results.",
  "data": [
    {"target": "T1, Sut1 (UniProt P53032)", "T1 sequence": "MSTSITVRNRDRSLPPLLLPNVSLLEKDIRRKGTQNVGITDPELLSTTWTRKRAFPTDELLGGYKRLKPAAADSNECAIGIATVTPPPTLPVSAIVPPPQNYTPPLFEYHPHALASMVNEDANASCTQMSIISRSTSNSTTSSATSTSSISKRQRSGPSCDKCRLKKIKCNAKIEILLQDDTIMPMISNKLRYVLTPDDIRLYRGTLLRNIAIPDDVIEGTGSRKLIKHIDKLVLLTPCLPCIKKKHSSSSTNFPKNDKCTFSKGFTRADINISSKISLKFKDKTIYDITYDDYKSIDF", "test": "PBM E-score (8-mer binding enrichment) (E-score (-0.5 to 0.5)); higher = stronger / more preferred TF binding; most listed sequences are background and not binding sites", "settings": "protein concentration: 200 nM; construct: GST-full length", "in_short": "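GST-tagged yeast TFs (full-length or DNA-binding domain) were made by PURExpress in vitro transcription/translation and applied at about 100-200 nM to universal all-10-mer Agilent arrays. The arrays were made double-stranded by primer extension, on fresh or once-stripped slides. Bound protein was detected with fluorescent anti-GST, and scans were normalised with masliner. Each ungapped eight-base word, pooled with its reverse complement, received an E-score (modified Wilcoxon-Mann-Whitney statistic) from the Universal PBM Analysis Suite.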", "values": [
      {"sequence": "ACCGGCAA", "PBM E-score": -0.198},
      {"sequence": "AACAGCCG", "PBM E-score": -0.175},
      {"sequence": "CAGATGAA", "PBM E-score": 0.0207},
      {"sequence": "GACGACAC", "PBM E-score": 0.0533},
      {"sequence": "ACTCTCTA", "PBM E-score": -0.0769},
      {"sequence": "CAAAGATC", "PBM E-score": 0.118},
      {"sequence": "AATGTCAG", "PBM E-score": -0.0732},
      {"sequence": "GCCGACGC", "PBM E-score": -0.0606},
      {"sequence": "CCTAGGCC", "PBM E-score": -0.152},
      {"sequence": "AGATTCAG", "PBM E-score": 0.0532},
      {"sequence": "CAAAGGGG", "PBM E-score": -0.211},
      {"sequence": "ACTCTCCT", "PBM E-score": -0.197},
      {"sequence": "CGGAGTGA", "PBM E-score": 0.451},
      {"sequence": "AGCCAGCG", "PBM E-score": -0.249},
      {"sequence": "GCAGCGAA", "PBM E-score": -0.0499},
      {"sequence": "CTACAGAC", "PBM E-score": -0.191},
      {"sequence": "AGGAACAG", "PBM E-score": -0.15},
      {"sequence": "ATTCTAGG", "PBM E-score": 0.0703},
      {"sequence": "ACCCAGCA", "PBM E-score": -0.134},
      {"sequence": "ATCATCTA", "PBM E-score": 0.00502},
      {"sequence": "ATCCTAAT", "PBM E-score": 0.0294},
      {"sequence": "ATAGTGAC", "PBM E-score": 0.0631},
      {"sequence": "CATTGGCG", "PBM E-score": -0.223},
      {"sequence": "CCTTGTTC", "PBM E-score": -0.103},
      {"sequence": "CACCCAGA", "PBM E-score": -0.00128},
      {"sequence": "CAAGAACG", "PBM E-score": 0.159},
      {"sequence": "ATGACGTA", "PBM E-score": 0.0909},
      {"sequence": "ATGGTTGC", "PBM E-score": -0.183},
      {"sequence": "GATGTGCA", "PBM E-score": -0.094},
      {"sequence": "ATCAAATA", "PBM E-score": 0.239},
      {"sequence": "ATGTTTTC", "PBM E-score": 0.165},
      {"sequence": "ATACCTGC", "PBM E-score": -0.196},
      {"sequence": "CGAGACAA", "PBM E-score": -0.1},
      {"sequence": "AGCTAATG", "PBM E-score": -0.147},
      {"sequence": "CCATTCAA", "PBM E-score": 0.0663},
      {"sequence": "ATCGTAAT", "PBM E-score": 0.253},
      {"sequence": "AGCTCACG", "PBM E-score": -0.137},
      {"sequence": "ACAAAGCA", "PBM E-score": 0.0335},
      {"sequence": "ACTTAACA", "PBM E-score": -0.0136},
      {"sequence": "CGCTACAC", "PBM E-score": -0.298},
      {"sequence": "CGCCGCGC", "PBM E-score": -0.246},
      {"sequence": "GAGTGAAC", "PBM E-score": -0.111},
      {"sequence": "CAGAAGCC", "PBM E-score": -0.134},
      {"sequence": "TATCGCAA", "PBM E-score": 0.0889},
      {"sequence": "AATGTGTA", "PBM E-score": 0.0338},
      {"sequence": "CACTATAC", "PBM E-score": -0.0209},
      {"sequence": "GGAGACAC", "PBM E-score": -0.0271},
      {"sequence": "AGGGACGG", "PBM E-score": -0.208},
      {"sequence": "AACCCTCG", "PBM E-score": -0.201},
      {"sequence": "GCGCGCCA", "PBM E-score": 0.0637},
      {"sequence": "ACATCTAA", "PBM E-score": 0.0364},
      {"sequence": "CCTCGCAA", "PBM E-score": -0.186},
      {"sequence": "CAGAGCGA", "PBM E-score": -0.039},
      {"sequence": "GTGGTTTA", "PBM E-score": -0.00096},
      {"sequence": "TTATTCAA", "PBM E-score": 0.262},
      {"sequence": "AGGGGCGA", "PBM E-score": -0.43},
      {"sequence": "AGCAGTAA", "PBM E-score": 0.0389},
      {"sequence": "AGGGTCCA", "PBM E-score": -0.289},
      {"sequence": "ATGATAGG", "PBM E-score": 0.0269},
      {"sequence": "AGTCAAAT", "PBM E-score": 0.0856},
      {"sequence": "GCATACGC", "PBM E-score": -0.122},
      {"sequence": "ATACCCGA", "PBM E-score": -0.0834},
      {"sequence": "ACTCTTGC", "PBM E-score": -0.174},
      {"sequence": "AGAGTAGG", "PBM E-score": -0.0457},
      {"sequence": "CGCTTCAC", "PBM E-score": -0.176},
      {"sequence": "GGGGAACA", "PBM E-score": -0.142},
      {"sequence": "ATCTGAGG", "PBM E-score": -0.0962},
      {"sequence": "GAATTGTC", "PBM E-score": -0.0575},
      {"sequence": "CGACCCAA", "PBM E-score": 0.0507},
      {"sequence": "ACGTTCTC", "PBM E-score": 0.0774},
      {"sequence": "AGCAGAGG", "PBM E-score": -0.311},
      {"sequence": "CTCCCGCC", "PBM E-score": -0.223},
      {"sequence": "CTAAGTGA", "PBM E-score": 0.134},
      {"sequence": "ATGCTATC", "PBM E-score": -0.137},
      {"sequence": "TCCAGAAA", "PBM E-score": -0.0459},
      {"sequence": "CAGTTACG", "PBM E-score": -0.146},
      {"sequence": "ACTCGATC", "PBM E-score": 0.0221},
      {"sequence": "GGTGAGAA", "PBM E-score": 0.137},
      {"sequence": "CACTTGCA", "PBM E-score": -0.0957},
      {"sequence": "CAAGGCGA", "PBM E-score": -0.276},
      {"sequence": "ACTGTGAA", "PBM E-score": 0.0243},
      {"sequence": "ACTCTATG", "PBM E-score": -0.0223},
      {"sequence": "ACGGTCAG", "PBM E-score": -0.205},
      {"sequence": "AGGAAACG", "PBM E-score": -0.00178},
      {"sequence": "TGAGGCAA", "PBM E-score": -0.0189},
      {"sequence": "CCCGTAAC", "PBM E-score": -0.0218},
      {"sequence": "GACTTAGA", "PBM E-score": 0.0169},
      {"sequence": "ACATTGAG", "PBM E-score": 0.0164},
      {"sequence": "CAACAAAA", "PBM E-score": 0.188},
      {"sequence": "TCCGCGGA", "PBM E-score": 0.289},
      {"sequence": "TTACATAA", "PBM E-score": 0.288},
      {"sequence": "CACCCTTC", "PBM E-score": -0.101},
      {"sequence": "CTCCGGAG", "PBM E-score": 0.487},
      {"sequence": "ATCGCTAG", "PBM E-score": 0.0238},
      {"sequence": "GGGGAAGA", "PBM E-score": -0.281},
      {"sequence": "TGCGAACA", "PBM E-score": 0.15},
      {"sequence": "AAAATGAG", "PBM E-score": -0.00485},
      {"sequence": "AATGACGG", "PBM E-score": 0.18},
      {"sequence": "CACTGTGC", "PBM E-score": -0.0889},
      {"sequence": "CACAGGGG", "PBM E-score": -0.39},
      {"sequence": "CCTGTCGA", "PBM E-score": -0.148},
      {"sequence": "CTGGTAAC", "PBM E-score": -0.0815},
      {"sequence": "ACTCCAAA", "PBM E-score": 0.135},
      {"sequence": "CTTCCCTA", "PBM E-score": -0.104},
      {"sequence": "ACCATCCC", "PBM E-score": 0.0116},
      {"sequence": "AGTTGCCA", "PBM E-score": -0.0183},
      {"sequence": "CTGCTAAC", "PBM E-score": -0.114},
      {"sequence": "ACCACACC", "PBM E-score": -0.0678},
      {"sequence": "GGGACCCC", "PBM E-score": -0.202},
      {"sequence": "AAGGAGGT", "PBM E-score": 0.0105}
    ]}
  ]
}
